# In all, about 110,000 compounds went through this assay and about 230 (0.21%) showed an effect of 50% or more. The list shows a part of the results.
# Molecular target: DPAP1 (Plasmodium falciparum, UniProt Q8IIJ9)
# Experiment: primary screen, percent inhibition; read by cleavage of a fluorogenic dipeptide substrate; higher = more effect of the substance
# Parameters: species or system P. falciparum D10 trophozoite lysates; single well
# 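Also: 30 min substrate incubation versus DMSO and 10 µM JCP410 controls.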
# Sequence of DPAP1 (Q8IIJ9 whole entry, looked up): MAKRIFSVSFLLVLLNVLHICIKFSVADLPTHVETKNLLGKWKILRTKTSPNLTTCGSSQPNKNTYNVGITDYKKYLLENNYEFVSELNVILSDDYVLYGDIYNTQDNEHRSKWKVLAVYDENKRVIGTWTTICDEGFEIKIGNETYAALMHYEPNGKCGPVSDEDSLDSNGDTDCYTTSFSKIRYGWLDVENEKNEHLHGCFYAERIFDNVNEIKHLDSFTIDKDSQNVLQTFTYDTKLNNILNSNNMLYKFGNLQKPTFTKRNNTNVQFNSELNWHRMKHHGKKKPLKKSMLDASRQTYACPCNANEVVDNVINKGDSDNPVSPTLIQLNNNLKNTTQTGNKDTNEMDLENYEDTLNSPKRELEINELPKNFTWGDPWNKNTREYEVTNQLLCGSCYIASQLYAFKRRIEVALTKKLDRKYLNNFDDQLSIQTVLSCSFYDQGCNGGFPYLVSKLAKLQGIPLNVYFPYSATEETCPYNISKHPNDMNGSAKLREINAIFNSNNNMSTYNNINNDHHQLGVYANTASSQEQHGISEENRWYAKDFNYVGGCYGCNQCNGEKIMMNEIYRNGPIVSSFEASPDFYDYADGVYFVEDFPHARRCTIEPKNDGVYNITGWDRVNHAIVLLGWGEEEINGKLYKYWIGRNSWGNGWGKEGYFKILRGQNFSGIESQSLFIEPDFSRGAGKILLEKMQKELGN
row,SMILES,% Inhibition @ 10 uM [%]
1,CC1C=CCC2C(=O)N(c3ccc(C(=O)O)cc3)C(=O)C12 (centres unmarked),1.67
2,O=C1c2cccnc2C(=O)N1Cc1ccc(S(=O)(=O)Nc2c3c(nc4ccccc24)CCCC3)cc1,0.275
3,CC1=NN2C(=N)/C(=C\c3ccc(Sc4cccc5ccccc45)o3)C(=O)N=C2S1,-1.28
4,Cc1cccc(NC(=O)c2cc3ccccc3nc2C)c1,-1.61
5,CCc1ccccc1-n1c(C)cc(/C=C2\NC(=O)NC2=O)c1C,-3.92
6,CCn1c(CCCNC(=O)COc2ccccc2)nc2ccccc21,4.14
7,COc1cc(C2C(C#N)=C(N)Oc3[nH]nc(-c4ccccn4)c32)cc(OC)c1OC (centres unmarked),1.01
8,O=C1C(Cl)=C(Nc2cccc(C(F)(F)F)c2)C(=O)N1c1ccccc1,0.777
9,Cc1onc(-c2ccccc2)c1C(=O)NC(C)C1CC2CCC1C2 (centres unmarked),-2.29
10,Cc1ccc2c(n1)sc1c(N)ncnc12,-4.8
11,COc1ccc(OC)c(-n2cc3c(c2-c2ccc(Cl)cc2)c(=O)n(C)c(=O)n3C)c1,2.02
12,Cc1ccc(C)c(S(=O)(=O)c2nnn3c2nc(N2CCC(C(N)=O)CC2)c2sccc23)c1,-2.55
13,O=C(C1CCCN(c2ncnc3onc(-c4ccc(F)cc4)c23)C1)N1CCN(c2ccccn2)CC1 (centres unmarked),5.89
14,CC(O)CNc1ncnc2c1c(-c1ccccc1)cn2-c1ccc(Br)cc1 (centres unmarked),3.67
15,COc1ccc(CN2CCN(Cc3cccnc3)CC2)c(OC)c1,-2.82
16,COc1ccc(S(=O)(=O)NCc2cn3cccc(C)c3n2)cc1OC,0.00665
17,Cc1noc(C)c1CSc1ncnc2sc3c(c12)CCC(C)C3 (centres unmarked),0.147
18,Cc1ccc(/C=C(\NC(=O)c2ccccc2)C(=O)NC2CC2)o1,2.7
19,CCOC(=O)/C(C#N)=C\c1cc(OCC)ccc1OCC,-4.58
20,CCCCN(C)C(=O)Cn1nc(-c2ccc(Cl)cc2)ccc1=O,-1.79
21,C=CCN(CC=C)c1nc(=O)c2sc3ccccc3c2s1,-7.93
22,Cn1c(CSc2nc3c(N)ncnc3[nH]2)nc2ccccc21,4.05
23,CCCCNC(=O)C1c2ccccc2C(=O)N(C)C1c1c[nH]c2ccccc12 (centres unmarked),-4.53
24,CCOc1ccc2nc(NC(=O)Cn3ncc4c3-c3cc(C)ccc3OC4)sc2c1,0.54
25,COc1ccc(OC)c(S(=O)(=O)NCc2cn3c(C)csc3n2)c1,-2.45

row,SMILES,% Inhibition @ 10 uM [%]
1,CCn1ncc(C2=NOC(C(=O)NCc3ccc(OC)cc3)C2)c1C (centres unmarked),-6.68
2,Cc1ccc(C(=O)Nc2cc(S(N)(=O)=O)ccc2C)cc1,1.65
3,Cc1cc(C)cc(NS(=O)(=O)c2ccc(NC(=O)c3cccs3)cc2)c1,-2.19
4,O=C1CCCC(=O)C1=C1NC2(CCCCCC2)Cc2ccccc21,2.7
5,CC(C)=CCC12CN3CCN(CC(C3)C1=O)C2,-0.0735
6,Cc1nn(C(C)C(=O)NC2CCCCC2C)c(=O)c2cc3occc3n12 (centres unmarked),4.55
7,CCOc1ccccc1-c1nc(CSc2nc3ncccc3o2)c(C)o1,4.75
8,O=C(NCc1cccnc1)c1cc(Sc2ccccc2Cl)nc2ccccc12,10.3
9,Cc1ccc(C2=N/C(=C\c3ccc(Cl)cc3)C(=O)O2)cc1,5.73
10,Cc1cc(=O)n2nc(N3CCC(C(=O)NCCCN4CC(C)CC(C)C4)CC3)sc2n1 (centres unmarked),3
11,CC(NC(=O)CSc1nc(O)c2ccccc2n1)c1ccccc1 (centres unmarked),-2.8
12,O=C(O)c1ccccc1NC1=C(Cl)C(=O)N(c2ccccc2Cl)C1=O,3.72
13,COC(=O)C1=C(C)NC(=O)CC1c1cccc(Oc2ccccc2)c1 (centres unmarked),3.82
14,O=C(Nc1ccc(Nc2ccccc2)cc1)C1CCCC1,3.48
15,CCCCCCNC(=O)c1[nH]ncc1[N+](=O)[O-],-0.591
16,COC(=O)C1=C(C)OC(N)=C(C#N)C1c1cc(CSc2nc3ccccc3s2)cs1 (centres unmarked),4.58
17,O=C(C1CCCN1S(=O)(=O)c1cccc2nsnc12)N1CCn2c1nc1ccccc12 (centres unmarked),2.72
18,Cc1c(C(=O)N2CCCC2)oc2c1-c1nn(CC(=O)NCCC3=CCCCC3)cc1CC2,7.19
19,Cc1ccc(NCN2C(=O)C3CC=CCC3C2=O)c(C)c1 (centres unmarked),2.44
20,O=C(N/C(=C/c1ccc(F)cc1)C(=O)N1CCCC1C(=O)O)c1ccccc1 (centres unmarked),-0.366
21,O=C1C2C3c4ccccc4C(c4ccccc43)C2C(=O)N1c1ccccc1[N+](=O)[O-] (centres unmarked),-6.25
22,Cc1nn(CCCC(=O)NCCC2=CCCCC2)c(=O)c2nccn12,-1.6
23,CCn1cc(CCCC(=O)NCCN2CCN(C)CC2)c2ccccc21,1.47
24,C=CCOc1ccc(C2C(C#N)=C(N)Oc3c2ccc2ccccc32)cc1OC (centres unmarked),0.385
25,C=C1c2cc(CC)ccc2NC(=O)N1CC,-8.64

row,SMILES,% Inhibition @ 10 uM [%]
1,CCOCCCNC(=O)C1CCN(C(=O)c2cc3sccc3n2CC)CC1,1.8
2,Fc1ccccc1N1CCN(C2CCC(c3ccccc3)CC2)CC1 (centres unmarked),3.19
3,COc1ccc(C2C(C#N)=C(N)Oc3[nH]nc(-c4cccs4)c32)c(OC)c1OC (centres unmarked),-1.06
4,CCCCCCC(=O)N1c2ccccc2C(N(C(=O)c2ccc(F)cc2)c2ccccc2)CC1C (centres unmarked),5
5,CCn1c(-c2ccc(Cl)cc2)cs/c1=N\c1ccc(O)cc1,-8.06
6,CN1CCN(C(=O)Nc2cn(C)c(=O)c3ccccc23)CC1,1.91
7,COc1ccc(CN2CCN(Cc3cccc(Cl)c3)CC2)c(OC)c1,-2.22
8,Cc1ccc(S(=O)(=O)CCc2nnc(NC(=O)c3ccccc3)s2)cc1,-2.27
9,CCCCNC(=O)c1cc(-c2ccccc2)nc2c(C)cccc12,2.79
10,Cc1ccc(C(=O)NCCNC(=O)CN2CCOCC2)cc1,0.408
11,CCc1nnc(NS(=O)(=O)c2ccc(NC(C)=O)cc2)s1,-2.47
12,N#Cc1nc(-c2ccccc2)oc1NCc1ccccc1,-0.0267
13,COCCNC(=O)c1ccc2c(c1)nc(C)n2-c1cc(OC)c(OC)c(OC)c1,-0.458
14,Cc1c(CNC2CCCC2)c(C(=O)O)c(C)n1Cc1ccc(F)cc1,-3.67
15,N#CC1=C(N)N(c2ccccc2F)C2=C(C(=O)CCC2)C1c1ccc(Cl)cc1 (centres unmarked),-2.8
16,O=C(Cn1cnc2c(oc3ccccc32)c1=O)NCc1ccco1,-10
17,CCCCN(C(=O)c1cc2c(s1)-c1ccccc1OC2)C1CCN(C(C)=O)CC1,1.89
18,COc1ccccc1C(=O)Nc1ccc(Oc2ccc(C(=O)O)c(C(=O)O)c2)cc1,-1.57
19,COc1cc(CN2CCCCCC2)cc(OC)c1OC,-7.49
20,COc1cccc(-c2cc(C(=O)Nc3ccc(C(C)=O)cc3)c3ccccc3n2)c1,5.73
21,CCOC(=O)C1=C(CS(=O)(=O)c2ccccc2)NC(=O)NC1c1ccc(C(C)C)cc1 (centres unmarked),-3.94
22,Cc1ccc(S(=O)(=O)NC2=NC(=O)CC(c3ccc(Cl)cc3)N2)cc1 (centres unmarked),10.6
23,NC(=O)C1(N2CCCCC2)CCN(CC(=O)Nc2ccc(Oc3ccccc3)cc2)CC1,7.48
24,CC(C)(C)C(=O)Nc1ccc(C(=O)Nc2ccc(Cl)cc2)cc1,6.43
25,O=C1CC(c2ccccc2F)NC(NC(=O)c2cccc(Cl)c2)=N1 (centres unmarked),0.0654

row,SMILES,% Inhibition @ 10 uM [%]
1,COc1ccccc1C1C(C(C)=O)=C(C)N=c2s/c(=C\c3ccc(OC)c4ccccc34)c(=O)n21 (centres unmarked),-9.97
2,COc1ccccc1CNC(=O)CCn1nc(-c2ccccc2)ccc1=O,-0.0542
3,O=[N+]([O-])c1cccc(-c2nc(-c3ccccc3)no2)c1,-2.86
4,COc1ccc(Br)cc1C1CC(=O)C(C)C(c2cc(Br)ccc2OC)N1 (centres unmarked),3.33
5,CCN1CCN(CCCc2ccccc2)CC1,-3.57
6,Cn1cc(CCCC(=O)NCCN2CCOCC2)c2ccccc21,-1.67
7,N#CCNC(=O)[C@H](CS(=O)(=O)Cc1c(F)c(F)c(F)c(F)c1F)NC(=O)c1ccccc1,-3.49
8,O=C(NCCC1=CCCCC1)C1CCCN(S(=O)(=O)N2CCC3(CC2)OCCO3)C1 (centres unmarked),0.335
9,CNc1nc(N2CCOCC2)nc(N(c2ccccc2)c2ccccc2)n1,-1.59
10,CCCCOc1ccc(CNC(=O)NS(=O)(=O)c2ccc(OCC(C)C)cc2)cc1,6.5
11,Cc1ccccc1Cn1c(-c2cccs2)noc1=O,-0.696
12,Cc1ccc(NC(=O)CCSc2ccc(Cl)cc2)cc1,-0.511
13,CCN1CCN(C(=O)CS(=O)Cc2nc(-c3ccc(OC)c(OC)c3)oc2C)CC1 (centres unmarked),-4.71
14,COc1ccc(S(=O)(=O)Nc2ccc3c(c2)OCO3)c(Cl)c1Cl,2.95
15,CCOC(=O)C1=C(CC)OC(N)=C(C#N)C1c1ccc(F)c(F)c1 (centres unmarked),-0.771
16,CCN(CC)CCCNC(=O)CCNC(=O)Cn1ccc2ccccc2c1=O,-5.87
17,CCOc1ccc(C2OC(=O)Cc3cc(OC)c(OC)cc32)cc1 (centres unmarked),-6.88
18,c1ccc(-c2ccc(-c3nc(-c4ccncc4)no3)cc2)cc1,1.4
19,COc1cc(-c2nc3s/c(=C\c4ccccc4Cl)c(=O)n3n2)cc(OC)c1OC,0.561
20,C=CCN1C(=O)S/C(=C/c2ccc(C#N)cc2)C1=O,2.93
21,O=C(C1=C(O)C(=O)N(Cc2cccnc2)C1c1cccc(Oc2ccccc2)c1)c1cccs1 (centres unmarked),2.17
22,O=C(Cc1ccccc1)n1nc(-c2ccco2)nc1NCc1cccs1,-6.98
23,COC(=O)c1cc(=O)n(Cc2cccs2)/c(=N/Cc2cccs2)s1,-1.7
